{"source": "the supplement of paper PMC10126150", "note": "Sequences with one replicate were seen in a single cluster, so their values are uncertain.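 Also: ATP exposure 15 min at 22 °C before imaging.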"}
{"tested_on": "ATP", "test": "switch fluorescence ratio, 500 uM ATP over buffer (Cy3 cluster intensity, sum of 5 cycles each) (fold (ratio)); higher = stronger signal-on switching upon ATP binding; sequences stand for … in TCGTCGGCAGCGTCAGATGTGTATAAGAGACAGTTTTTTTTTTTTTTTTTTTTTTTTT…TC", "conditions": "aptamer strand: ATP DNA aptamer (quencher-CACCTGGGGGAGTATTGCGGAGGAAGG + anchor), 100 nM annealed; ATP concentration: 500 uM; one replicate", "outline": "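Values give the fluorescence ratio for each switch-domain sequence, averaged from per-cluster ratios of summed target-cycle to summed buffer-cycle Cy3 intensity. The Cy3-labelled switching-strand clusters sat on a modified Illumina MiSeq flow-cell, were annealed to 100 nM quencher-labelled ATP aptamer, and were imaged in selection buffer, then after 15 min with 500 uM ATP at 22 °C. Five cycles ran with NaOH stripping and re-annealing between them, and clusters outside 100-1000 RFU were excluded.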"}
{"sequence": "GCACTCAACG", "switch fluorescence ratio": 1.16}
{"sequence": "GCACTCTGCC", "switch fluorescence ratio": 1.05}
{"sequence": "GCACTGCGTA", "switch fluorescence ratio": 1.06}
{"sequence": "GCACTGTAAA", "switch fluorescence ratio": 1.06}
{"sequence": "GCACTTGCTT", "switch fluorescence ratio": 0.996}
{"sequence": "GCACTTTGG", "switch fluorescence ratio": 0.998}
{"sequence": "GCAGACCAAA", "switch fluorescence ratio": 1.01}
{"sequence": "GCAGACCGAG", "switch fluorescence ratio": 1.03}
{"sequence": "GCAGAGCTAT", "switch fluorescence ratio": 1}
{"sequence": "GCAGATGAAG", "switch fluorescence ratio": 0.959}
{"sequence": "GCAGATTGGG", "switch fluorescence ratio": 1}
{"sequence": "GCAGCACCGC", "switch fluorescence ratio": 1.01}
{"sequence": "GCAGCAGACT", "switch fluorescence ratio": 2.89}
{"sequence": "GCAGCCCGG", "switch fluorescence ratio": 1}
{"sequence": "GCAGCCTAA", "switch fluorescence ratio": 0.996}
{"sequence": "GCAGCGTGAA", "switch fluorescence ratio": 0.996}
{"sequence": "GCAGCTTTAG", "switch fluorescence ratio": 1.07}
{"sequence": "GCAGGAACG", "switch fluorescence ratio": 0.962}
{"sequence": "GCAGGAGGAC", "switch fluorescence ratio": 1}
{"sequence": "GCAGGGTGTG", "switch fluorescence ratio": 1.02}
{"sequence": "GCAGGGTTCG", "switch fluorescence ratio": 1.01}
{"sequence": "GCAGGTTGGG", "switch fluorescence ratio": 1.04}
{"sequence": "GCAGTAAAGT", "switch fluorescence ratio": 0.943}
{"sequence": "GCAGTACCGT", "switch fluorescence ratio": 1.02}
{"sequence": "GCAGTATAAC", "switch fluorescence ratio": 1.08}
{"sequence": "GCAGTATTGT", "switch fluorescence ratio": 1.01}
{"sequence": "GCAGTCATAT", "switch fluorescence ratio": 1.01}
{"sequence": "GCAGTGAACA", "switch fluorescence ratio": 1.01}
{"sequence": "GCAGTGAGTT", "switch fluorescence ratio": 0.994}
{"sequence": "GCAGTTGTGG", "switch fluorescence ratio": 0.977}
{"sequence": "GCAGTTTACT", "switch fluorescence ratio": 1.04}
{"sequence": "GCAGTTTCTA", "switch fluorescence ratio": 0.979}
{"sequence": "GCATACCCTT", "switch fluorescence ratio": 1.09}
{"sequence": "GCATACCGAA", "switch fluorescence ratio": 1.03}
{"sequence": "GCATACTTCC", "switch fluorescence ratio": 3.02}
{"sequence": "GCATAGCGTA", "switch fluorescence ratio": 1.03}
{"sequence": "GCATAGCTTT", "switch fluorescence ratio": 1}
{"sequence": "GCATAGGGGC", "switch fluorescence ratio": 1.05}
{"sequence": "GCATAGGGTA", "switch fluorescence ratio": 1.02}
{"sequence": "GCATAGTTAG", "switch fluorescence ratio": 1.01}
{"sequence": "GCATATATCG", "switch fluorescence ratio": 0.97}
{"sequence": "GCATCAAACC", "switch fluorescence ratio": 1}
{"sequence": "GCATCAAGAC", "switch fluorescence ratio": 2.48}
{"sequence": "GCATCAATGA", "switch fluorescence ratio": 0.997}
{"sequence": "GCATCAGATC", "switch fluorescence ratio": 0.99}
{"sequence": "GCATCGCATG", "switch fluorescence ratio": 1.07}
{"sequence": "GCATCGCTTG", "switch fluorescence ratio": 1.06}
{"sequence": "GCATCGGATA", "switch fluorescence ratio": 1.02}
{"sequence": "GCATCGTGCT", "switch fluorescence ratio": 1.02}
{"sequence": "GCATGAACTT", "switch fluorescence ratio": 1.02}
{"sequence": "GCATGACCGT", "switch fluorescence ratio": 0.972}
{"sequence": "GCATGAGATG", "switch fluorescence ratio": 0.963}
{"sequence": "GCATGAGCCT", "switch fluorescence ratio": 0.988}
{"sequence": "GCATGCCGAG", "switch fluorescence ratio": 0.969}
{"sequence": "GCATGCGTCT", "switch fluorescence ratio": 0.978}
{"sequence": "GCATGCTCTA", "switch fluorescence ratio": 0.975}
{"sequence": "GCATGGAATT", "switch fluorescence ratio": 0.961}
{"sequence": "GCATGGGCAA", "switch fluorescence ratio": 1.02}
{"sequence": "GCATGTATAC", "switch fluorescence ratio": 1.44}
{"sequence": "GCATGTCGTG", "switch fluorescence ratio": 1.01}
{"sequence": "GCATGTGTCT", "switch fluorescence ratio": 0.977}
{"sequence": "GCATGTTTAA", "switch fluorescence ratio": 1.01}
{"sequence": "GCATGTTTCG", "switch fluorescence ratio": 1}
{"sequence": "GCATTATCTG", "switch fluorescence ratio": 1}
{"sequence": "GCATTATTGC", "switch fluorescence ratio": 1.02}
{"sequence": "GCATTCGCTC", "switch fluorescence ratio": 1.09}
{"sequence": "GCATTGTGCT", "switch fluorescence ratio": 0.995}
{"sequence": "GCATTTATTG", "switch fluorescence ratio": 0.969}
{"sequence": "GCATTTGTCT", "switch fluorescence ratio": 0.953}
{"sequence": "GCATTTTCGC", "switch fluorescence ratio": 1.02}
{"sequence": "GCATTTTTTG", "switch fluorescence ratio": 0.986}
{"sequence": "GCCAAAACCG", "switch fluorescence ratio": 1.05}
{"sequence": "GCCAAAACGG", "switch fluorescence ratio": 1.03}
{"sequence": "GCCAAACATT", "switch fluorescence ratio": 1.02}
{"sequence": "GCCAACCCCA", "switch fluorescence ratio": 1.09}
{"sequence": "GCCAACCTTT", "switch fluorescence ratio": 0.999}
{"sequence": "GCCAATGCTG", "switch fluorescence ratio": 1.08}
{"sequence": "GCCAATTATC", "switch fluorescence ratio": 1.03}
{"sequence": "GCCACAACTG", "switch fluorescence ratio": 1.03}
{"sequence": "GCCACACGAG", "switch fluorescence ratio": 1.03}
{"sequence": "GCCACACGCC", "switch fluorescence ratio": 1.13}
{"sequence": "GCCACTGACC", "switch fluorescence ratio": 1.18}
{"sequence": "GCCACTGAGA", "switch fluorescence ratio": 1.02}
{"sequence": "GCCAGAAATG", "switch fluorescence ratio": 0.989}
{"sequence": "GCCAGAACTT", "switch fluorescence ratio": 0.97}
{"sequence": "GCCAGAGCCA", "switch fluorescence ratio": 1.01}
{"sequence": "GCCAGAGGT", "switch fluorescence ratio": 1.01}
{"sequence": "GCCAGCGGTC", "switch fluorescence ratio": 1.03}
{"sequence": "GCCAGGTGGT", "switch fluorescence ratio": 3.14}
{"sequence": "GCCAGGTTCG", "switch fluorescence ratio": 1.01}
{"sequence": "GCCAGTACAA", "switch fluorescence ratio": 1.04}
{"sequence": "GCCATCTCTG", "switch fluorescence ratio": 0.983}
{"sequence": "GCCATGGGAT", "switch fluorescence ratio": 1.02}
{"sequence": "GCCATTACTC", "switch fluorescence ratio": 2.07}
{"sequence": "GCCATTGGTG", "switch fluorescence ratio": 1.15}
{"sequence": "GCCCACATTT", "switch fluorescence ratio": 1}
{"sequence": "GCCCAGTTCT", "switch fluorescence ratio": 1}
{"sequence": "GCCCATCTGC", "switch fluorescence ratio": 1.11}
{"sequence": "GCCCCTGGCA", "switch fluorescence ratio": 1.03}
{"sequence": "GCCCGAGACG", "switch fluorescence ratio": 1.01}
